In paper PMC12820563, “FoxP3 forms a head-to-head dimer in vivo and stabilizes its multimerization on adjacent microsatellites”:
Some of the results follow.

target: T1, MBP-FoxP1dN (Mus musculus, UniProt P58462 326-579); assay: PD-seq (MBP pull-down with sequencing); 20 mM Tris-HCl pH 7.5, 100 mM NaCl, 1.5 mM MgCl2, 0.4 uM protein, 0.1 uM dsDNA library, 30 min, room temperature, amylose pull-down; high values mean tight binding; settings: protein: recombinant; tags: His6-MBP; chain copies: 2; dsDNA, one strand shown
T1 sequence: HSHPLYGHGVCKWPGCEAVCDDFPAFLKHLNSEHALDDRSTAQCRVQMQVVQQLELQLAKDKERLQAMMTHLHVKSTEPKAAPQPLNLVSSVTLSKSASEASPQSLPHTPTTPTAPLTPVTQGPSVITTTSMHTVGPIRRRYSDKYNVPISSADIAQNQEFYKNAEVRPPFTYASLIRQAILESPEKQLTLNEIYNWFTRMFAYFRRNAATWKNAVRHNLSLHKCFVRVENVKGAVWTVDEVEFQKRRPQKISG
Method in brief: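 Mouse FoxP3 or FoxP1 fragment lacking the N-terminus, His6-MBP-tagged and expressed in E. coli, was incubated at 0.4 µM with 0.1 µM Klenow-filled degenerate double-stranded DNA library for 30 min at room temperature in Tris pH 7.5 buffer with NaCl and MgCl2. Complexes captured on amylose resin were washed three times and their DNA sequenced on Illumina. Binding is reads-per-million enrichment of pull-down over input, replicates pooled.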

| Sequence | binding signal |
| --- | --- |
| GATGATTGTTCTCCCAGCTGATGAATTCGCTAAGTCGAGTAAACAAATTTTCCTAATCTTTCTGTTCAAGCGCCATCTAC | 0.891 RPM ratio (pull-down/input) |
| GATGATTGTTCTCCCAGCTGATGAATTTCATTTGTCGAGTAAACAAATTTTCCTAATCTTTCTGTTCAAGCGCCATCTAC | 1.12 RPM ratio (pull-down/input) |
| GATGATTGTTCTCCCAGCTGATGAATTTTTGGGATCGAGTAAACAAATTTTCCTAATCTTTCTGTTCAAGCGCCATCTAC | 0.901 RPM ratio (pull-down/input) |
| GATGATTGTTCTCCCAGCTGATGAATTGGGTATGTCGAGTAAACAAATTTTCCTAATCTTTCTGTTCAAGCGCCATCTAC | 0.909 RPM ratio (pull-down/input) |
| GATGATTGTTCTCCCAGCTGATGAATTCAAGCATTCGAGTAAACAAATTTTCCTAATCTTTCTGTTCAAGCGCCATCTAC | 1.11 RPM ratio (pull-down/input) |
| GATGATTGTTCTCCCAGCTGATGAATTGATTCATTCGAGTAAACAAATTTTCCTAATCTTTCTGTTCAAGCGCCATCTAC | 1.02 RPM ratio (pull-down/input) |
| GATGATTGTTCTCCCAGCTGATGAATTATTTAAGTCGAGTAAACAAATTTTCCTAATCTTTCTGTTCAAGCGCCATCTAC | 1.06 RPM ratio (pull-down/input) |
| GATGATTGTTCTCCCAGCTGATGAATTACGCGCGTCGAGTAAACAAATTTTCCTAATCTTTCTGTTCAAGCGCCATCTAC | 1.09 RPM ratio (pull-down/input) |
| GATGATTGTTCTCCCAGCTGATGAATTCCTATACTCGAGTAAACAAATTTTCCTAATCTTTCTGTTCAAGCGCCATCTAC | 0.861 RPM ratio (pull-down/input) |
| GATGATTGTTCTCCCAGCTGATGAATTCGAGGTTTCGAGTAAACAAATTTTCCTAATCTTTCTGTTCAAGCGCCATCTAC | 0.88 RPM ratio (pull-down/input) |
| GATGATTGTTCTCCCAGCTGATGAATTGGTCTTGTCGAGTAAACAAATTTTCCTAATCTTTCTGTTCAAGCGCCATCTAC | 0.936 RPM ratio (pull-down/input) |
| GATGATTGTTCTCCCAGCTGATGAATTGGAAGGCTCGAGTAAACAAATTTTCCTAATCTTTCTGTTCAAGCGCCATCTAC | 0.76 RPM ratio (pull-down/input) |
| GATGATTGTTCTCCCAGCTGATGAATTGGGATTCTCGAGTAAACAAATTTTCCTAATCTTTCTGTTCAAGCGCCATCTAC | 0.836 RPM ratio (pull-down/input) |
| GATGATTGTTCTCCCAGCTGATGAATTTTGGAGATCGAGTAAACAAATTTTCCTAATCTTTCTGTTCAAGCGCCATCTAC | 0.822 RPM ratio (pull-down/input) |
| GATGATTGTTCTCCCAGCTGATGAATTAGCGTGCTCGAGTAAACAAATTTTCCTAATCTTTCTGTTCAAGCGCCATCTAC | 0.924 RPM ratio (pull-down/input) |
| GATGATTGTTCTCCCAGCTGATGAATTACCTACTTCGAGTAAACAAATTTTCCTAATCTTTCTGTTCAAGCGCCATCTAC | 1.03 RPM ratio (pull-down/input) |
| GATGATTGTTCTCCCAGCTGATGAATTGTGCTCATCGAGTAAACAAATTTTCCTAATCTTTCTGTTCAAGCGCCATCTAC | 1.12 RPM ratio (pull-down/input) |
| GATGATTGTTCTCCCAGCTGATGAATTGACGTTATCGAGTAAACAAATTTTCCTAATCTTTCTGTTCAAGCGCCATCTAC | 1.24 RPM ratio (pull-down/input) |
| GATGATTGTTCTCCCAGCTGATGAATTGTCAGGCTCGAGTAAACAAATTTTCCTAATCTTTCTGTTCAAGCGCCATCTAC | 0.839 RPM ratio (pull-down/input) |
| GATGATTGTTCTCCCAGCTGATGAATTACTATAATCGAGTAAACAAATTTTCCTAATCTTTCTGTTCAAGCGCCATCTAC | 1.27 RPM ratio (pull-down/input) |

| Sequence | binding signal |
| --- | --- |
| GATGATTGTTCTCCCAGCTGATGAATTTGTCTCTTCGAGTAAACAAATTTTCCTAATCTTTCTGTTCAAGCGCCATCTAC | 1.06 RPM ratio (pull-down/input) |
| GATGATTGTTCTCCCAGCTGATGAATTGCGTTACTCGAGTAAACAAATTTTCCTAATCTTTCTGTTCAAGCGCCATCTAC | 1.17 RPM ratio (pull-down/input) |
| GATGATTGTTCTCCCAGCTGATGAATTTCCGCCATCGAGTAAACAAATTTTCCTAATCTTTCTGTTCAAGCGCCATCTAC | 0.867 RPM ratio (pull-down/input) |
| GATGATTGTTCTCCCAGCTGATGAATTTGCGTTATCGAGTAAACAAATTTTCCTAATCTTTCTGTTCAAGCGCCATCTAC | 1.3 RPM ratio (pull-down/input) |
| GATGATTGTTCTCCCAGCTGATGAATTAGCCGCTTCGAGTAAACAAATTTTCCTAATCTTTCTGTTCAAGCGCCATCTAC | 0.848 RPM ratio (pull-down/input) |
| GATGATTGTTCTCCCAGCTGATGAATTTGTTGAATCGAGTAAACAAATTTTCCTAATCTTTCTGTTCAAGCGCCATCTAC | 1.23 RPM ratio (pull-down/input) |
| GATGATTGTTCTCCCAGCTGATGAATTGTTGTATTCGAGTAAACAAATTTTCCTAATCTTTCTGTTCAAGCGCCATCTAC | 2.21 RPM ratio (pull-down/input) |
| GATGATTGTTCTCCCAGCTGATGAATTGGGGTAGTCGAGTAAACAAATTTTCCTAATCTTTCTGTTCAAGCGCCATCTAC | 0.905 RPM ratio (pull-down/input) |
| GATGATTGTTCTCCCAGCTGATGAATTACTGTTGTCGAGTAAACAAATTTTCCTAATCTTTCTGTTCAAGCGCCATCTAC | 2.55 RPM ratio (pull-down/input) |
| GATGATTGTTCTCCCAGCTGATGAATTCATTATCTCGAGTAAACAAATTTTCCTAATCTTTCTGTTCAAGCGCCATCTAC | 0.894 RPM ratio (pull-down/input) |
| GATGATTGTTCTCCCAGCTGATGAATTCAGGGTGTCGAGTAAACAAATTTTCCTAATCTTTCTGTTCAAGCGCCATCTAC | 0.842 RPM ratio (pull-down/input) |
| GATGATTGTTCTCCCAGCTGATGAATTAATAAAATCGAGTAAACAAATTTTCCTAATCTTTCTGTTCAAGCGCCATCTAC | 1.16 RPM ratio (pull-down/input) |
| GATGATTGTTCTCCCAGCTGATGAATTGCTGTGCTCGAGTAAACAAATTTTCCTAATCTTTCTGTTCAAGCGCCATCTAC | 1.06 RPM ratio (pull-down/input) |
| GATGATTGTTCTCCCAGCTGATGAATTACCTCAGTCGAGTAAACAAATTTTCCTAATCTTTCTGTTCAAGCGCCATCTAC | 0.988 RPM ratio (pull-down/input) |
| GATGATTGTTCTCCCAGCTGATGAATTGTGCGCCTCGAGTAAACAAATTTTCCTAATCTTTCTGTTCAAGCGCCATCTAC | 1.01 RPM ratio (pull-down/input) |
| GATGATTGTTCTCCCAGCTGATGAATTGTCAAGGTCGAGTAAACAAATTTTCCTAATCTTTCTGTTCAAGCGCCATCTAC | 0.882 RPM ratio (pull-down/input) |
| GATGATTGTTCTCCCAGCTGATGAATTCTCCGTGTCGAGTAAACAAATTTTCCTAATCTTTCTGTTCAAGCGCCATCTAC | 0.822 RPM ratio (pull-down/input) |
| GATGATTGTTCTCCCAGCTGATGAATTAAGTGCATCGAGTAAACAAATTTTCCTAATCTTTCTGTTCAAGCGCCATCTAC | 1.43 RPM ratio (pull-down/input) |
| GATGATTGTTCTCCCAGCTGATGAATTAAGCTCTTCGAGTAAACAAATTTTCCTAATCTTTCTGTTCAAGCGCCATCTAC | 0.86 RPM ratio (pull-down/input) |
| GATGATTGTTCTCCCAGCTGATGAATTTTATTCTTCGAGTAAACAAATTTTCCTAATCTTTCTGTTCAAGCGCCATCTAC | 0.886 RPM ratio (pull-down/input) |
